This is an account of results in publication PMC4762780.

Sequences of proteins named here, by UniProt entry; tags and fusion partners are left off. A change or cut given only in a name is not applied to a line headed by its entry. A line that says so, or that is headed by a name, gives the form on record, which may keep a tag or linker.
FLAG-tagged WT MEF2C (myocyte enhancer factor 2C) (Q8CFN5-5, form named): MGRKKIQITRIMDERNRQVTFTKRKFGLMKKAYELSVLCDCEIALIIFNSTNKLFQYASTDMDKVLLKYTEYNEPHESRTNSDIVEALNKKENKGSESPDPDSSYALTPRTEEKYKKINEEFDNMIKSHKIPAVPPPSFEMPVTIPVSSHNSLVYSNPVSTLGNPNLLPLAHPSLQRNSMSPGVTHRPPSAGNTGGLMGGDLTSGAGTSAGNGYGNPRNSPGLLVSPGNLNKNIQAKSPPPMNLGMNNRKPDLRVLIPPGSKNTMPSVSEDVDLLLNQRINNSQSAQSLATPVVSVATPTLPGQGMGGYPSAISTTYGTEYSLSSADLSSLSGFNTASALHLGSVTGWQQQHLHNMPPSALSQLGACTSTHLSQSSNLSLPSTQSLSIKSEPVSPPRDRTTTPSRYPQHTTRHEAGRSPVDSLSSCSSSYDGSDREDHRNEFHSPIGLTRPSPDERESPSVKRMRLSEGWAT
UniProt Q02650: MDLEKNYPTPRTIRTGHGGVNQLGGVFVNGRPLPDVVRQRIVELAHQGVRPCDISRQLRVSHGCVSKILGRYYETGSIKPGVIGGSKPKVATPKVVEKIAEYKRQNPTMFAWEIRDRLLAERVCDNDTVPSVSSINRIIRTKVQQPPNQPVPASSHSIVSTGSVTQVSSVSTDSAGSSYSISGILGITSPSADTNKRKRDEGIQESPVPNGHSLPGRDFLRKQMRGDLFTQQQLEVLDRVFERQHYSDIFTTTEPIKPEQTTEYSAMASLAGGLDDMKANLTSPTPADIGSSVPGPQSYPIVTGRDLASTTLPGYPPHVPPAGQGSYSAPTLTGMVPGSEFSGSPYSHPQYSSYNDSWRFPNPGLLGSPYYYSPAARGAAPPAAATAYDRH

These are yes or no findings as the source states them, for the method shown. Binding seen in cells or lysates may run through a third protein. Some binding calls cover weakened binding; strength is not graded here. For part of these data: Where a sequence is shown, tags or fusion partners need not be part of it.

The target of assay [1] is FLAG-tagged WT MEF2C (myocyte enhancer factor 2C) (UniProt Q8CFN5). The assay can be described thus: co-IP; 293T cells co-transfected; lysis in 50mM HEPES, 140mM NaCl, 1mM EDTA, 0.5% Triton-X, 0.5% sodium deoxycholate; overnight IP with anti-FLAG M2 (MEF2C as bait); washed with high-salt lysis buffer (500mM NaCl); blotted with anti-Myc or anti-V5; for WT MEF2C and EBF1 also with benzonase treatment, which did not prevent co-IP.

Assay [2] has as its target T1, Myc-tagged EBF1 (early B cell factor-1) (UniProt Q07802).
T1 sequence: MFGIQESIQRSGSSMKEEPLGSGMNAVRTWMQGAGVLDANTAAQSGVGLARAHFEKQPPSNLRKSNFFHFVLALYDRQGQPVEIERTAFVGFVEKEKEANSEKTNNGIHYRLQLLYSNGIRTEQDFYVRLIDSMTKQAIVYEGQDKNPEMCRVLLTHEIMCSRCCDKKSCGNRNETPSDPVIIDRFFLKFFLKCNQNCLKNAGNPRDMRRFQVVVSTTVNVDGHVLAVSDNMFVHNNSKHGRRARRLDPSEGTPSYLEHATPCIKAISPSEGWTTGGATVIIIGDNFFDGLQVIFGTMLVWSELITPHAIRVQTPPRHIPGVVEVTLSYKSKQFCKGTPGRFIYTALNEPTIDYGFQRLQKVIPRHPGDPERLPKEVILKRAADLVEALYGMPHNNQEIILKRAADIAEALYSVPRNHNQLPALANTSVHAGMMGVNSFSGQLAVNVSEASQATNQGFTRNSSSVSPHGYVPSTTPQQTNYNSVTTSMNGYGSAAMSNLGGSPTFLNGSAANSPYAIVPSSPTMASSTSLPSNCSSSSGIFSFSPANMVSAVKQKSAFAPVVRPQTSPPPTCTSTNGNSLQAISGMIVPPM
The assay can be described thus: co-IP; 293T cells co-transfected with FLAG-tagged WT, EED or AAA MEF2C and Myc-tagged EBF1; Myc-IP (EBF1 as bait) blotted with FLAG antibody (S1C Fig).

With “Myc-tagged E12 (E2A isoform) (from UniProt E9PWE2 1-653)”, the binding entry in assay [1] is “no binding”.

As to “Myc-tagged PAX5 (from UniProt Q02650 1-391)”, the binding result in assay [1] was “no binding”.

For the substance “FLAG-tagged WT MEF2C (myocyte enhancer factor 2C) (from UniProt Q8CFN5-5 1-472)”, the binding result in assay [2] was “binds”.
